Experimental data from paper PMC13022133.
No constants are given. Whether binding was seen depends on the method and setting. In cells and extracts the contact can be indirect. Some binding calls cover weakened binding; strength is not graded here. For some of these results: Sequences can lack the tags named with a protein.

Legend:
[1] = target: T1, myc-PLK4 (Polo-like kinase 4), tetracycline-inducible in U2OS cells (UniProt O00444); assay: co-IP; U2OS cells with tetracycline-induced myc-PLK4, transfected with GFP-McIdas or GFP alone; IP with anti-myc on Protein A agarose; same lysis buffer
T1 sequence: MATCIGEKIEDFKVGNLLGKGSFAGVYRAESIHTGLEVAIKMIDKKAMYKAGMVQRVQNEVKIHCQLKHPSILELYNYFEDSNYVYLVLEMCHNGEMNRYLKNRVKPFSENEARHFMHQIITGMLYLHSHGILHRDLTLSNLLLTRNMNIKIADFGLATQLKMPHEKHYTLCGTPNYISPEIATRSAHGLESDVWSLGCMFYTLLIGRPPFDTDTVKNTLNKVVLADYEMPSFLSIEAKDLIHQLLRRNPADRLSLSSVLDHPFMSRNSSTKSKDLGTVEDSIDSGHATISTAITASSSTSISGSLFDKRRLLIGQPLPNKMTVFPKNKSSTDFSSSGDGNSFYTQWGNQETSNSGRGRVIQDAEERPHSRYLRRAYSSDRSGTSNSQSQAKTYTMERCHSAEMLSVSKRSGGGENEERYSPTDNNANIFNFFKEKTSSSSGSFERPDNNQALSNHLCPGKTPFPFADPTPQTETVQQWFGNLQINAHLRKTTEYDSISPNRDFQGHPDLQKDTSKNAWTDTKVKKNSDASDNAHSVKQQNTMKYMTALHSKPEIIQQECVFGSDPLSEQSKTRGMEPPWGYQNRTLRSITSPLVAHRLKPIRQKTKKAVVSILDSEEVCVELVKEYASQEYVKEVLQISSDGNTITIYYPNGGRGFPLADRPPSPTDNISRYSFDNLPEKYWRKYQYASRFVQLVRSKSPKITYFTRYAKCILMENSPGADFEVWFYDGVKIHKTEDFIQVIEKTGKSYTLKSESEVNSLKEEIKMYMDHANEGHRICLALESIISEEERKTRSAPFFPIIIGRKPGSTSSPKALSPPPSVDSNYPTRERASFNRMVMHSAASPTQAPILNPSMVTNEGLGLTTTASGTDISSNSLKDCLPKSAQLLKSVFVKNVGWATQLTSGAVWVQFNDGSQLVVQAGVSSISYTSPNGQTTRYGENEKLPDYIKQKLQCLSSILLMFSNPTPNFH

[2] = target: T2, endogenous McIdas (U2OS cells) (human (endogenous in U2OS)) (UniProt D6RGH6); assay: co-IP; total U2OS cell extracts, endogenous proteins; IP with anti-McIdas antibody, IgG IP as control; western blot
T2 sequence: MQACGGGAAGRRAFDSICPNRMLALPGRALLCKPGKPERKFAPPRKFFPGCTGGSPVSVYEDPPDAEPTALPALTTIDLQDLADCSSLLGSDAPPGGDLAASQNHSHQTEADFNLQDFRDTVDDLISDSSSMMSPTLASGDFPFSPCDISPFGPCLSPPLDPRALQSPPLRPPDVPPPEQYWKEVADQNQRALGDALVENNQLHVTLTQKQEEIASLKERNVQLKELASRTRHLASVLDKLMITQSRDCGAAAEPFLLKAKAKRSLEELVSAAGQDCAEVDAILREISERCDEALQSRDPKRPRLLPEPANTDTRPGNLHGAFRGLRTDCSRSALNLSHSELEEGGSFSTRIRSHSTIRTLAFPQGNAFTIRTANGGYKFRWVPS

[3] = target: T3, GFP-tagged McIdas (GFP-McIdas), expressed in HEK 293T cells (not stated (human or mouse cDNA cloned)) (UniProt D6RGH6); assay: co-IP; HEK 293T cells co-transfected with GFP-McIdas or GFP alone and HA-STIL or SAS6-SNAP-Flag (tetracycline-dependent promoter); IP with anti-GFP on Protein A agarose
T3 sequence: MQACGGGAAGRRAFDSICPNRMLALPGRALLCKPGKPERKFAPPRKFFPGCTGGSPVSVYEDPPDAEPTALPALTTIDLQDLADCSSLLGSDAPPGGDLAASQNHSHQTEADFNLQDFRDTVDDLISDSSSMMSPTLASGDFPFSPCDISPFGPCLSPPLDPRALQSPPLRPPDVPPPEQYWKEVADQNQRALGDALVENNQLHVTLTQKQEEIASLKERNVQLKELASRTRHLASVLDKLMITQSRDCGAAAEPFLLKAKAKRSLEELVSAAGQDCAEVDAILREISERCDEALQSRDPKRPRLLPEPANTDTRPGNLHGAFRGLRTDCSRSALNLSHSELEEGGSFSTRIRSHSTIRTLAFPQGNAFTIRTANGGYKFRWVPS

| Binder | binding [3] | also measured |
| --- | --- | --- |
| GFP-tagged McIdas (GFP-McIdas WT), expressed in U2OS myc-PLK4 cells (protein, UniProt D6RGH6 1-385) MQACGGGAAGRRAFDSICPNRMLALPGRALLCKPGKPERKFAPPRKFFPGCTGGSPVSVYEDPPDAEPTALPALTTIDLQDLADCSSLLGSDAPPGGDLAASQNHSHQTEADFNLQDFRDTVDDLISDSSSMMSPTLASGDFPFSPCDISPFGPCLSPPLDPRALQSPPLRPPDVPPPEQYWKEVADQNQRALGDALVENNQLHVTLTQKQEEIASLKERNVQLKELASRTRHLASVLDKLMITQSRDCGAAAEPFLLKAKAKRSLEELVSAAGQDCAEVDAILREISERCDEALQSRDPKRPRLLPEPANTDTRPGNLHGAFRGLRTDCSRSALNLSHSELEEGGSFSTRIRSHSTIRTLAFPQGNAFTIRTANGGYKFRWVPS | – | binding [1]: binds |
| endogenous PLK4 (U2OS cells) (enzyme, UniProt O00444 1-970) MATCIGEKIEDFKVGNLLGKGSFAGVYRAESIHTGLEVAIKMIDKKAMYKAGMVQRVQNEVKIHCQLKHPSILELYNYFEDSNYVYLVLEMCHNGEMNRYLKNRVKPFSENEARHFMHQIITGMLYLHSHGILHRDLTLSNLLLTRNMNIKIADFGLATQLKMPHEKHYTLCGTPNYISPEIATRSAHGLESDVWSLGCMFYTLLIGRPPFDTDTVKNTLNKVVLADYEMPSFLSIEAKDLIHQLLRRNPADRLSLSSVLDHPFMSRNSSTKSKDLGTVEDSIDSGHATISTAITASSSTSISGSLFDKRRLLIGQPLPNKMTVFPKNKSSTDFSSSGDGNSFYTQWGNQETSNSGRGRVIQDAEERPHSRYLRRAYSSDRSGTSNSQSQAKTYTMERCHSAEMLSVSKRSGGGENEERYSPTDNNANIFNFFKEKTSSSSGSFERPDNNQALSNHLCPGKTPFPFADPTPQTETVQQWFGNLQINAHLRKTTEYDSISPNRDFQGHPDLQKDTSKNAWTDTKVKKNSDASDNAHSVKQQNTMKYMTALHSKPEIIQQECVFGSDPLSEQSKTRGMEPPWGYQNRTLRSITSPLVAHRLKPIRQKTKKAVVSILDSEEVCVELVKEYASQEYVKEVLQISSDGNTITIYYPNGGRGFPLADRPPSPTDNISRYSFDNLPEKYWRKYQYASRFVQLVRSKSPKITYFTRYAKCILMENSPGADFEVWFYDGVKIHKTEDFIQVIEKTGKSYTLKSESEVNSLKEEIKMYMDHANEGHRICLALESIISEEERKTRSAPFFPIIIGRKPGSTSSPKALSPPPSVDSNYPTRERASFNRMVMHSAASPTQAPILNPSMVTNEGLGLTTTASGTDISSNSLKDCLPKSAQLLKSVFVKNVGWATQLTSGAVWVQFNDGSQLVVQAGVSSISYTSPNGQTTRYGENEKLPDYIKQKLQCLSSILLMFSNPTPNFH | – | binding [2]: binds |
| HA-STIL (SCL/TAL1 interrupting locus protein) (protein, UniProt Q15468 1-1287) MEPIYPFARPQMNTRFPSSRMVPFHFPPSKCALWNPTPTGDFIYLHLSYYRNPKLVVTEKTIRLAYRHAKQNKKNSSCFLLGSLTADEDEEGVTLTVDRFDPGREVPECLEITPTASLPGDFLIPCKVHTQELCSREMIVHSVDDFSSALKALQCHICSKDSLDCGKLLSLRVHITSRESLDSVEFDLHWAAVTLANNFKCTPVKPIPIIPTALARNLSSNLNISQVQGTYKYGYLTMDETRKLLLLLESDPKVYSLPLVGIWLSGITHIYSPQVWACCLRYIFNSSVQERVFSESGNFIIVLYSMTHKEPEFYECFPCDGKIPDFRFQLLTSKETLHLFKNVEPPDKNPIRCELSAESQNAETEFFSKASKNFSIKRSSQKLSSGKMPIHDHDSGVEDEDFSPRPIPSPHPVSQKISKIQPSVPELSLVLDGNFIESNPLPTPLEMVNNENPPLINHLEHLKPLQPQLYDEKHSPEVEAGEPSLRGIPNQLNQDKPALLRHCKVRQPPAYKKGNPHTRNSIKPSSHNGPSHDIFEKLQTVSAGNVQNEEYPIRPSTLNSRQSSLAPQSQPHDFVFSPHNSGRPMELQIPTPPLPSYCSTNVCRCCQHHSHIQYSPLNSWQGANTVGSIQDVQSEALQKHSLFHPSGCPALYCNAFCSSSSPIALRPQGDMGSCSPHSNIEPSPVARPPSHMDLCNPQPCTVCMHTPKTESDNGMMGLSPDAYRFLTEQDRQLRLLQAQIQRLLEAQSLMPCSPKTTAVEDTVQAGRQMELVSVEAQSSPGLHMRKGVSIAVSTGASLFWNAAGEDQEPDSQMKQDDTKISSEDMNFSVDINNEVTSLPGSASSLKAVDIPSFEESNIAVEEEFNQPLSVSNSSLVVRKEPDVPVFFPSGQLAESVSMCLQTGPTGGASNNSETSEEPKIEHVMQPLLHQPSDNQKIYQDLLGQVNHLLNSSSKETEQPSTKAVIISHECTRTQNVYHTKKKTHHSRLVDKDCVLNATLKQLRSLGVKIDSPTKVKKNAHNVDHASVLACISPEAVISGLNCMSFANVGMSGLSPNGVDLSMEANAIALKYLNENQLSQLSVTRSNQNNCDPFSLLHINTDRSTVGLSLISPNNMSFATKKYMKRYGLLQSSDNSEDEEEPPDNADSKSEYLLNQNLRSIPEQLGGQKEPSKNDHEIINCSNCESVGTNADTPVLRNITNEVLQTKAKQQLTEKPAFLVKNLKPSPAVNLRTGKAEFTQHPEKENEGDITIFPESLQPSETLKQMNSMNSVGTFLDVKRLRQLPKLF | no binding | – |
| HsSAS6-SNAP-FLAG (protein, UniProt Q6UVJ0 1-657) MSQVLFHQLVPLQVKCKDCEERRVSIRMSIELQSVSNPVHRKDLVIRLTDDTDPFFLYNLVISEEDFQSLKFQQGLLVDFLAFPQKFIDLLQQCTQEHAKEIPRFLLQLVSPAAILDNSPAFLNVVETNPFKHLTHLSLKLLPGNDVEIKKFLAGCLKCSKEEKLSLMQSLDDATKQLDFTRKTLAEKKQELDKLRNEWASHTAALTNKHSQELTNEKEKALQAQVQYQQQHEQQKKDLEILHQQNIHQLQNRLSELEAANKDLTERKYKGDSTIRELKAKLSGVEEELQRTKQEVLSLRRENSTLDVECHEKEKHVNQLQTKVAVLEQEIKDKDQLVLRTKEAFDTIQEQKVVLEENGEKNQVQLGKLEATIKSLSAELLKANEIIKKLQGDLKTLMGKLKLKNTVTIQQEKLLAEKEEKLQKEQKELQDVGQSLRIKEQEVCKLQEQLEATVKKLEESKQLLKNNEKLITWLNKELNENQLVRKQDVLGPSTTPPAHSSSNTIRSGISPNLNVVDGRLTYPTCGIGYPVSSAFAFQNTFPHSISAKNTSHPGSGTKVQFNLQFTKPNASLGDVQSGATISMPCSTDKENGENVGLESKYLKKREDSIPLRGLSQNLFSNSDHQRDGTLGALHTSSKPTALPSASSAYFPGQLPNS | no binding | – |
